# Test results as given in US20100047327A1, “Adjuvant for Transdermal or Transmucosal Administration and Pharmaceutical Preparation Containing the Same” (priority 2007, published 2010).
# Test system: influenza H3N2
# Experiment: Antibody titer after intracutaneous administration of influenza H3N2 antigen plus LA
# Settings: influenza H3N2 0.07 μg/head, antigen solution:LA:Tween 80 1:1:0.01; FIG. 6
compound,measurement,value
"CCCCCCCCCCCCO [Lauryl alcohol, lauryl alcohol]","antibody titer, intracutaneous (antigen+LA)",adjuvant effect
